± gives the standard error. Variants at the background level are over-represented here.
B1: glmS ribozyme (parent)
chain: AUAAAAGCGCCAGAACUACAGAAAUGUAGUUGACGAGGAGGAGGUUUAUCGAAUUUUCGGCGGAUGCCUCCAAA

Experiments:
Conditions in all cases: with glucosamine-6-phosphate
glucosamine-6-phosphate [1] = variants of: B1; assay: self-cleavage kobs at 40 uM GlcN6P; higher = faster cleavage; RNA array
How it was run: (§1)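 Barcoded ribozyme variants on sequenced MiSeq chips were transcribed in situ by E. coli RNA polymerase and followed at 37 °C through a hybridised Cy3 probe. Glucosamine-6-phosphate at 40 μM to 10 mM in HEPES/KCl/Mg(OAc)2 buffer was flowed in, and tiles were imaged over ~14 h. Signals were normalised to baseline and to non-cleaving reference variants, and per-tile medians were fit to one- or two-exponential decays to give kobs. Weighted Michaelis–Menten fits across concentrations gave kcat and KM.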

glucosamine-6-phosphate [2] = variants of: B1; assay: self-cleavage kobs at 10000 uM GlcN6P; higher = faster cleavage; RNA array
How it was run: as §1

glucosamine-6-phosphate [3] = variants of: B1; assay: self-cleavage kobs at 640 uM GlcN6P; higher = faster cleavage; RNA array
How it was run: as §1

glucosamine-6-phosphate [4] = variants of: B1; assay: self-cleavage kobs at 160 uM GlcN6P; higher = faster cleavage; RNA array
How it was run: as §1

glucosamine-6-phosphate [5] = variants of: B1; assay: self-cleavage kobs at 2500 uM GlcN6P; higher = faster cleavage; RNA array
How it was run: as §1

Variant | self-cleavage kobs at 40 uM GlcN6P (glucosamine-6-phosphate [1]) [s⁻¹] | self-cleavage kobs at 10000 uM GlcN6P (glucosamine-6-phosphate [2]) [s⁻¹] | self-cleavage kobs at 640 uM GlcN6P (glucosamine-6-phosphate [3]) [s⁻¹] | self-cleavage kobs at 160 uM GlcN6P (glucosamine-6-phosphate [4]) [s⁻¹] | self-cleavage kobs at 2500 uM GlcN6P (glucosamine-6-phosphate [5]) [s⁻¹]
AUAAAAGCGCCAGAACUACAGAAAUGUAGUUCACGAGGAGGAGGUUUAUCGAAUUAUCGGCGGAUGCCUCAAAA [G32C U56A C71A] | < 1e-05 | 3.09e-05 ± 1.5e-05 |  |  | 
AUAAAAGCGCCAGAACUACAGAAAUGUAGUUUCCGAGGAGGAGGUUUAUCGAAUUUUCUGCGGAUGCCUCCAAA [G32U A33C G59U] | < 1e-05 |  | < 1e-05 | < 1e-05 | 
AUAAAAGCGCCAGAACUACAGAAAUGUAGUUUACGAGGAGGAGGUUUAUCGAAUUUUCGGCGGCUGCCUCCAAA [G32U A64C] | < 1e-05 | < 1e-05 | < 1e-05 | < 1e-05 | < 1e-05
AUAAAAGCGCCAGAACUACAGAAAUGUAGUUUACGAGCAGGAGGUUUAUUGAAUUUUCGGCGGAUGCCUCCAAA [G32U G38C C50U] | < 1e-05 | < 1e-05 |  |  | 
AUAAAAGCGCCAGAACUACAGAAAUGUAGUUUACGAGGAGGAGGUCUAUCGAAUUUUAGGCGGAUGCCUCUAAA [G32U U46C C58A C71U] | < 1e-05 |  |  |  | 
AUAAAAGCGCCAGAACUACAGAAAUGUAGUUGCCGAGGAGGCGGUUUAUCGAAUUUUCGGCGGAUGCCUCCAAA [A33C A42C] | < 1e-05 | < 1e-05 | < 1e-05 | < 1e-05 | 
AUAAAAGCGCCAGAACUACAGAAAUGUAGUUGCCGAGGAGGAGGUUUAUCGAAUUUUCGGCGGGUGCCUCCAAA [A33C A64G] | < 1e-05 |  | < 1e-05 |  | 
AUAAAAGCGCCAGAACUACAGAAAUGUAGUUGCCGAGGAGGAGGUUUAUCGAAUUUUCGGCGGAUGCUUCCAAA [A33C C68U] | < 1e-05 | < 1e-05 |  | < 1e-05 | < 1e-05
AUAAAAGCGCCAGAACUACAGAAAUGUAGUUGCCUAGGAGGAGGUUUAUCGAAUUUUCGGCGGAUGCCUCCAAA [A33C G35U] | < 1e-05 | < 1e-05 | < 1e-05 | < 1e-05 | < 1e-05
AUAAAAGCGCCAGAACUACAGAAAUGUAGUUGCCGAGAAGGAGGUUUAUCGAAUUUUCGGCGGAUGCCUCCAAA [A33C G38A] | < 1e-05 |  | < 1e-05 | < 1e-05 | 
AUAAAAGCGCCAGAACUACAGAAAUGUAGUUGCCGAGGAGGAGGUUUAUCGAAUUUUCGGCCGACGCCUCCAAA [A33C G62C U65C] | < 1e-05 |  |  |  | < 1e-05
AUAAAAGCGCCAGAACUACAGAAAUGUAGUUGCCGAGGAGGAGGUUUAUCGAAUUUUCGGCGAAUGCCUCCAAA [A33C G63A] | < 1e-05 | < 1e-05 |  |  | 
AUAAAAGCGCCAGAACUACAGAAAUGUAGUUGGCGUGGAGGAGGUUUAUCGAUUUUUCGGCGGAUGCCUCCAAA [A33G A36U A53U] | < 1e-05 | < 1e-05 |  |  | < 1e-05
